The values below come from the supplement of paper PMC10338343.

± gives the standard deviation. The full ranking holds about 6,600 sequences; the median of “pre-steady-state target cleavage rate” is about 0.07, and the highest 2% start at about 0.72. The entries are a selection whose mix differs from that of the whole data set.

The test deals with MIWI (PIWIL1) piRISC loaded with Kctd7 piRNA (30 nt). The test can be described thus: pre-steady-state target cleavage rate (min^-1); MIWI and MILI are mouse PIWI proteins and EfPiwi is from a freshwater sponge; tags in brackets are library labels; higher = faster piRNA-guided slicing of the target. To be noted: guide: Kctd7 piRNA 5'p-UGUUAAUCUCUCAGAGAAGGUGACAGUGAU; auxiliary factor: 500 nM mouse GTSF1. In short, it runs like this: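 Sequencing of uncleaved targets, normalised to depth and to weakly complementary targets, was the readout of this Cleave-'n-Seq assay. A transcribed, DNA-blocked target RNA library (0.1 nM) was mixed with 1 nM active affinity-purified piRISC carrying one synthetic guide, with or without 500 nM GTSF1 partner protein, in HEPES–potassium acetate buffer at 33 °C for 0–8 or 0–960 min. Three trials were pooled, k3 was capped at 0.0001 min^-1, and a burst-and-steady-state fit gave the pre-steady-state cleavage rate.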
For UUCACUGUCACCUUCUCAGUGAGAUUAACA, the “pre-steady-state target cleavage rate” value was 0.0204 ± 0.0044.

Regarding AUCACUGACACCUUCUCUGAGAGAUUAACA, the “pre-steady-state target cleavage rate” value was 0.602 ± 0.028.

In the case of UAGUGUCUCACCUUCUCAGAGAGAUUAACA, the “pre-steady-state target cleavage rate” value was found to be 0.235 ± 0.021. Consider UAGUGAGUCACCUUCUCUGUCAGAUUAACA, for which the “pre-steady-state target cleavage rate” value worked out at 0.0096 ± 0.0034. Under UAGACUCUCACCAUCUCUGAGAGAUUAACA stands 0.343 ± 0.023; under UAGUCUGUCACCUACUCUGAGAGAUUAUCA, 0.253 ± 0.038; under AUCACACACACCUUCUCUGAGAGAUAUUGA, 0.0367 ± 0.014. On to UUCACUGUCUCCUUCUCUGAGUGAUUAACA, for which the “pre-steady-state target cleavage rate” value is 0.0335 ± 0.0051. On to UAGUGACAGACCUUCUCUGAGAGAAAAACA, for which the “pre-steady-state target cleavage rate” value is 0.0119 ± 0.0046.

Take UACACUGUCACCUUCUCUGAGUGAUUAAGA: the “pre-steady-state target cleavage rate” value amounted to 0.00609 ± 0.0048.

As to UAGUCUGUCACCUUCUCUGAGAGAUUAAAA, the “pre-steady-state target cleavage rate” value stood at 0.113 ± 0.021.

Regarding AUCACUGUCACCUUCUCUGAGAGAAAAACA, the “pre-steady-state target cleavage rate” value stood at 0.166 ± 0.031. In the case of UAGUGAGUCACCUUCUCUGAGAGAUUUAGA, the “pre-steady-state target cleavage rate” value amounted to 0.0476 ± 0.015. As for UUCACUGUGACCUUCUCUCAGAGAUUAACA, the “pre-steady-state target cleavage rate” value was 0.0886 ± 0.0069. For UUCACUCUCACCUUCUCUGUGAGAUUAACA, the “pre-steady-state target cleavage rate” value was found to be 0.2 ± 0.0098. As to AUGACUGUCACCUUCUCUCAGAGAUUAACA, the “pre-steady-state target cleavage rate” value is 0.102 ± 0.0046. UACACUGUCACCAACUCUGAGAGAUUAAGA: the “pre-steady-state target cleavage rate” value is 0.0589 ± 0.014. In the case of AUCACUGUCACGUUCUCUGAGAGAUUUACA, the “pre-steady-state target cleavage rate” value was 0.247 ± 0.032. The figure for UACACUGACACCUUCUCUGAGACAUUAACA is 0.197 ± 0.03.

With UUCACUCUCACCUUCUCUCAGAGAUUAACA, the “pre-steady-state target cleavage rate” value is 0.104 ± 0.0088. Regarding UAGUGAGUCACCUUCUCUGAGAGUUUUUGA, the “pre-steady-state target cleavage rate” value turned out to be 0.0751 ± 0.018. AUCACUGUCUCCUUCUCUGUGAGAUUAACA: the “pre-steady-state target cleavage rate” value turned out to be 0.25 ± 0.014.

As for UAGUGAGUCACCUUCAGUGAGAGAUUAACA, the “pre-steady-state target cleavage rate” value was 0.121 ± 0.016. As to UAGUGAGUCUCCUUCACUGAGAGAUUAACA, the “pre-steady-state target cleavage rate” value is 0.369 ± 0.033.

As to UAGUGACUCACGUUCUCUGAGAGAUUAAGA, the “pre-steady-state target cleavage rate” value was 0.0313 ± 0.0078. As for AUCACUGUGACCUUCUCUGAGAGAUUAACA, the “pre-steady-state target cleavage rate” value turned out to be 0.664 ± 0.041. UAGUGAGUCCCUUCUCUGAGAGAUUAACA: the “pre-steady-state target cleavage rate” value worked out at 0.512 ± 0.044. Under UAGUGACAGAGCUUCUCUGACAGAUUAACA stands 0.00436 ± 0.0035. For “UUCACUGUCACCUUCUCUGAGAGAUUAACG [g2:g29:cont:t1G]”, the “pre-steady-state target cleavage rate” value came out at 0.578 ± 0.029. UAGUCUGUCACGUUCUCUGAGACAUUAACA: the “pre-steady-state target cleavage rate” value came to 0.00922 ± 0.0021. With UUCACUGUGACCUUCUCUGUGAGAUUAACA, the “pre-steady-state target cleavage rate” value was 0.198 ± 0.011. Under UACACUGUCACCUUCUCUGUGACAUUAACA stands 0.039 ± 0.0066. Turning to UACACUGACACCUUCUCUGAGAGAUUAACA, the “pre-steady-state target cleavage rate” value worked out at 0.543 ± 0.036. On to AUCACUGACACCUUCUCUCAGAGAUUAACA, for which the “pre-steady-state target cleavage rate” value worked out at 0.0989 ± 0.0085.

Consider UAGUGACAGUCCUUCUCUGAGAGAUUAAA, for which the “pre-steady-state target cleavage rate” value is 0.027 ± 0.0049. As for UAGUGACAGUGCUUCUCUGAGAGAUUAGCA, the “pre-steady-state target cleavage rate” value is 0.00775 ± 0.0023. Under UAGACUCACACCUUCUCUGAGAGAUAUUGA stands 0.0233 ± 0.0066; under UAGUGUCUCACCUUCUCUGACAGAUUAACA, 0.384 ± 0.029. For the sequence UUCACUGUGUCCUUCUCUGAGAGAUAUUGA, the “pre-steady-state target cleavage rate” value is 0.011 ± 0.0039.

With AUCACUGUCACCUUCUCUGAGAGAUAUAGA, the “pre-steady-state target cleavage rate” value came out at 0.0812 ± 0.022.

In the case of AUCACUGUCACCUUCAGAGAGAGAUUAACA, the “pre-steady-state target cleavage rate” value came to 0.103 ± 0.036. In the case of UAGUGACAGUCCUCUCUGAGAGAUUAACA, the “pre-steady-state target cleavage rate” value was 0.00355 ± 0.0021.

With UACACUGUCACCUUCGUCUGAGAGAUUAACA, the “pre-steady-state target cleavage rate” value worked out at 0.199 ± 0.044.

Turning to UAGACUGUCACCUUCUCUGAGAGUUUAACA, the “pre-steady-state target cleavage rate” value worked out at 0.237 ± 0.03. As for UUCACUGUCACCUUCUCUCUGAGAUUAACA, the “pre-steady-state target cleavage rate” value came out at 0.0263 ± 0.0076. Under UAGUCUGUCACCUUCUCUGACUCAUUAACA stands 0.00675 ± 0.002; under UAGUGACAGUCCUUCUCUGAGAGAUUAUACA, 0.0212 ± 0.0053.

Take AUCACUGACACCUUCACUGAGAGAUUAACA: the “pre-steady-state target cleavage rate” value was found to be 0.502 ± 0.028. In the case of UAGUGAGUCUCCUUCUCUGAGAGAAUAACA, the “pre-steady-state target cleavage rate” value came to 0.212 ± 0.035. As for UUCACUCACACCUUCUCUGAGAGAUUAACA, the “pre-steady-state target cleavage rate” value was 0.546 ± 0.025. On to AUCACUGUCACUUUCUCUGAGAGAUUAACA, for which the “pre-steady-state target cleavage rate” value was 0.794 ± 0.04. Turning to UAGACUGUGACGUUCUCUGAGAGAUUAACA, the “pre-steady-state target cleavage rate” value worked out at 0.409 ± 0.027.

For UAGUGACACACCUUCUCUGAGAGAAAAACA, the “pre-steady-state target cleavage rate” value worked out at 0.0637 ± 0.015. UAGUGACAGACCUACUCUGUGAGAUUAACA: the “pre-steady-state target cleavage rate” value came to 0.0059 ± 0.0034. As for UAGUGUGUCACCUUCUCUGAGAGAUAUAACA, the “pre-steady-state target cleavage rate” value was 0.297 ± 0.029.

Turning to UAGUCUGUCACCUUCUCUGAGAGAUGAACA, the “pre-steady-state target cleavage rate” value was determined as 0.174 ± 0.028. For the sequence AUCACAGUCACCUUCACUGAGAGAUUAACA, the “pre-steady-state target cleavage rate” value was 0.518 ± 0.033. UAGUCUGUGACGUUCUCUGAGAGAUUAACA: the “pre-steady-state target cleavage rate” value amounted to 0.5 ± 0.036. Consider UUCACUGUCACCUUGUCUCAGAGAUUAACA, for which the “pre-steady-state target cleavage rate” value is 0.0331 ± 0.0048. For the sequence UACACUGUCACCUUCUCUGAGAGUAAAUGA, the “pre-steady-state target cleavage rate” value is 0.0785 ± 0.035. Take UAGUCUGUCACCUUCUGAGAGAGAUUAACA: the “pre-steady-state target cleavage rate” value was 0.0517 ± 0.0069. Regarding AUCACAGUCACCUUGUCUGAGAGAUUAACA, the “pre-steady-state target cleavage rate” value was 0.444 ± 0.071. As to AUCACUGUCACCUUCUCUGAGAGAUGUAACA, the “pre-steady-state target cleavage rate” value was 0.385 ± 0.047. For UUCACUGUCACCUUCUCUGAGACAUUAUGA, the “pre-steady-state target cleavage rate” value was 0.00809 ± 0.004.

As for UAGUGACACAGCAUCUCUGAGAGAUUAACA, the “pre-steady-state target cleavage rate” value worked out at 0.012 ± 0.0033. Under UACACUGUCACCUUCUCUGAGAGAAUAACA stands 0.323 ± 0.056. As to UAGUGUGUCACCUUCUCUCGAGAGAUUAACA, the “pre-steady-state target cleavage rate” value turned out to be 0.338 ± 0.097. The figure for AUCACUGUCACACUUCUCUGAGAGAUUAACA is 0.619 ± 0.035; for UAGACAGUCACGUUCUCUGAGAGAUUAACA it is 0.651 ± 0.032.

As for UUCACAGUCUCCUUCUCUGAGAGAUUAACA, the “pre-steady-state target cleavage rate” value was 0.503 ± 0.031. For the sequence UAGUCUGUCACCUUCACUGAGAGAUUAAGA, the “pre-steady-state target cleavage rate” value is 0.0904 ± 0.024.
